The BET-seq Pho4 binding data (Le et al. 2018)
This is one part of the list. Values were computed here from the reads of four pooled replicates and scatter widely.

The sequences below were run against T1, Pho4 (S. cerevisiae) (UniProt P07270) (assay: relative binding free energy (BET-seq); higher = weaker binding). Details: reference: library average.
T1 sequence: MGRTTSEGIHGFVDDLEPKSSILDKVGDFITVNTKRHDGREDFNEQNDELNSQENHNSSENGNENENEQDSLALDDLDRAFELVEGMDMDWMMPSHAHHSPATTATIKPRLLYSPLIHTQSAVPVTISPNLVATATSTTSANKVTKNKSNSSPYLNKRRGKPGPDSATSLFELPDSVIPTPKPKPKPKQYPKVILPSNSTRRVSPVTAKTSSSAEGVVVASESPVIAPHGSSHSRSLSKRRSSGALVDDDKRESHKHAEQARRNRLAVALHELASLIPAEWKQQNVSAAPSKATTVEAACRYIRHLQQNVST
TTCGTCACGTGGTCTT was tested, and the “relative binding free energy” value was -0.11 kcal/mol. In the case of AAAGTCACGTGGTTTT, the “relative binding free energy” value is reported as 0.07 kcal/mol. With GAGGGCACGTGGATTG the “relative binding free energy” value was -0.08 kcal/mol. In the case of TTTTGCACGTGTCTAA, the “relative binding free energy” value is reported as -0.03 kcal/mol. For CTGGGCACGTGCGAGG, the “relative binding free energy” value was -0.24 kcal/mol. ATGTGCACGTGGGCGC was tested, and the “relative binding free energy” value was -0.16 kcal/mol. In the case of GATGGCACGTGATTCT, the “relative binding free energy” value is reported as 0.23 kcal/mol. ATTGCCACGTGTTTTG was tested, and the “relative binding free energy” value was 0.02 kcal/mol. TGGTCCACGTGTTGAA was tested, and the “relative binding free energy” value was 0.18 kcal/mol. For AATGACACGTGGTAAT, the “relative binding free energy” value was -0.07 kcal/mol. For AAGTGCACGTGTTCAT, the “relative binding free energy” value was -0.02 kcal/mol. For AGTTGCACGTGGTTTC, the “relative binding free energy” value was 0.01 kcal/mol. TCTGTCACGTGAGGTA was tested, and the “relative binding free energy” value was 0.17 kcal/mol. In the case of TATACCACGTGTTGTG, the “relative binding free energy” value is reported as -0.19 kcal/mol. For TAGGGCACGTGAGTGT, the “relative binding free energy” value was 0.12 kcal/mol. For ACGATCACGTGTATTG, the “relative binding free energy” value was 0.34 kcal/mol. For GAGTTCACGTGGTTTT, the “relative binding free energy” value was 0.38 kcal/mol. With GTAAGCACGTGGAATT the “relative binding free energy” value was 0.03 kcal/mol. With TGAGACACGTGAGGTA the “relative binding free energy” value was 0.34 kcal/mol. GAGATCACGTGTTCGT was tested, and the “relative binding free energy” value was 0.29 kcal/mol. TACGTCACGTGAGTGT was tested, and the “relative binding free energy” value was 0.12 kcal/mol. CGTTACACGTGTCGTT was tested, and the “relative binding free energy” value was 0.12 kcal/mol. With AGGATCACGTGGAGGT the “relative binding free energy” value was 0.11 kcal/mol. For GTCGGCACGTGGCGTT, the “relative binding free energy” value was -0.06 kcal/mol. For TGTTACACGTGAGGAA, the “relative binding free energy” value was 0.37 kcal/mol. In the case of TGTTTCACGTGGCTTG, the “relative binding free energy” value is reported as 0.32 kcal/mol. In the case of GATTGCACGTGATCGG, the “relative binding free energy” value is reported as 0.08 kcal/mol. TTCTGCACGTGCATGG was tested, and the “relative binding free energy” value was 0.01 kcal/mol. GGAAGCACGTGGTGTA was tested, and the “relative binding free energy” value was -0.11 kcal/mol. With AATGTCACGTGTTGTA the “relative binding free energy” value was 0.02 kcal/mol. For TGATTCACGTGGGCAA, the “relative binding free energy” value was 0.22 kcal/mol. For TAGGTCACGTGGATCA, the “relative binding free energy” value was 0.13 kcal/mol. In the case of TCTTACACGTGGAGTT, the “relative binding free energy” value is reported as 0.22 kcal/mol. With CCGGACACGTGTGGGT the “relative binding free energy” value was 0.13 kcal/mol. In the case of CGTGGCACGTGGCGAG, the “relative binding free energy” value is reported as -0.21 kcal/mol. In the case of TGGCTCACGTGATGTA, the “relative binding free energy” value is reported as 0.12 kcal/mol. For TAGTGCACGTGGCTGA, the “relative binding free energy” value was -0.05 kcal/mol. With TTGTGCACGTGTGTCA the “relative binding free energy” value was 0.07 kcal/mol. CTAGTCACGTGTCGTG was tested, and the “relative binding free energy” value was -0.01 kcal/mol. For TTTCGCACGTGTGAGG, the “relative binding free energy” value was 0.2 kcal/mol. With TTAACCACGTGTTTAG the “relative binding free energy” value was 0.03 kcal/mol. GGGGCCACGTGCGCGG was tested, and the “relative binding free energy” value was -0.21 kcal/mol. In the case of TCTTTCACGTGCGTTT, the “relative binding free energy” value is reported as 0.12 kcal/mol. AGCGCCACGTGGGGGT was tested, and the “relative binding free energy” value was -0.25 kcal/mol. For GATGTCACGTGATGCT, the “relative binding free energy” value was 0.19 kcal/mol. With GGACTCACGTGTTGTG the “relative binding free energy” value was 0.2 kcal/mol. For AGGGCCACGTGATGGC, the “relative binding free energy” value was 0.12 kcal/mol. GTTTTCACGTGATTTG was tested, and the “relative binding free energy” value was 0.37 kcal/mol. In the case of GATGTCACGTGAGGGC, the “relative binding free energy” value is reported as 0.41 kcal/mol. With ATAGACACGTGGGGAA the “relative binding free energy” value was -0.09 kcal/mol. For AGGAGCACGTGGGTTA, the “relative binding free energy” value was -0.18 kcal/mol. In the case of TAATACACGTGGTTGC, the “relative binding free energy” value is reported as -0.03 kcal/mol. AGCTGCACGTGTGAGC was tested, and the “relative binding free energy” value was 0.19 kcal/mol. For GAGGGCACGTGTTTAG, the “relative binding free energy” value was 0.02 kcal/mol. With GCTTTCACGTGGTCGA the “relative binding free energy” value was 0.23 kcal/mol. With ATTGGCACGTGGAGTA the “relative binding free energy” value was -0.24 kcal/mol. In the case of TTTTTCACGTGGATAA, the “relative binding free energy” value is reported as 0.3 kcal/mol. For TTCCTCACGTGGGGTT, the “relative binding free energy” value was 0.05 kcal/mol. TGGATCACGTGTTTTA was tested, and the “relative binding free energy” value was 0.38 kcal/mol. In the case of GTTAGCACGTGCGTGC, the “relative binding free energy” value is reported as -0.12 kcal/mol. AAGGACACGTGGTAGC was tested, and the “relative binding free energy” value was 0.15 kcal/mol. In the case of GACAGCACGTGTTTGG, the “relative binding free energy” value is reported as 0.02 kcal/mol. With TGGGCCACGTGTGAGT the “relative binding free energy” value was -0.11 kcal/mol. For AATAGCACGTGTATAG, the “relative binding free energy” value was -0.1 kcal/mol. In the case of GAATGCACGTGTGATG, the “relative binding free energy” value is reported as 0.07 kcal/mol. With CACGGCACGTGGGAGG the “relative binding free energy” value was -0.1 kcal/mol. For AGTAACACGTGTAGGT, the “relative binding free energy” value was 0.04 kcal/mol. TTATTCACGTGCTATA was tested, and the “relative binding free energy” value was 0.17 kcal/mol. For AAGTCCACGTGGGAGG, the “relative binding free energy” value was 0.08 kcal/mol. For ATAGGCACGTGTTGTA, the “relative binding free energy” value was -0.24 kcal/mol. TTTCACACGTGTGGCG was tested, and the “relative binding free energy” value was 0.24 kcal/mol. ATATTCACGTGATATT was tested, and the “relative binding free energy” value was 0.26 kcal/mol. For TGAGCCACGTGGGAGG, the “relative binding free energy” value was -0.11 kcal/mol. For GCATGCACGTGTGCGG, the “relative binding free energy” value was -0.02 kcal/mol. With GGTTGCACGTGGGGGG the “relative binding free energy” value was -0.07 kcal/mol. In the case of TATGTCACGTGGGGTT, the “relative binding free energy” value is reported as -0.02 kcal/mol. In the case of ACTTACACGTGGTGGT, the “relative binding free energy” value is reported as -0.1 kcal/mol. With AGTGACACGTGGTTAT the “relative binding free energy” value was 0.01 kcal/mol. TTGGGCACGTGGACCT was tested, and the “relative binding free energy” value was -0.12 kcal/mol. With GTTAACACGTGAGGGT the “relative binding free energy” value was 0.21 kcal/mol. TTGATCACGTGGGCGA was tested, and the “relative binding free energy” value was -0.03 kcal/mol. In the case of CATTTCACGTGATTTT, the “relative binding free energy” value is reported as 0.36 kcal/mol. With TGCTACACGTGATTTT the “relative binding free energy” value was 0.37 kcal/mol. In the case of TGGTTCACGTGTTATA, the “relative binding free energy” value is reported as 0.25 kcal/mol. With ATGCACACGTGGAGTA the “relative binding free energy” value was 0.16 kcal/mol. With GTTATCACGTGGGATG the “relative binding free energy” value was 0.13 kcal/mol. For TTGGGCACGTGAAGCT, the “relative binding free energy” value was 0.15 kcal/mol. In the case of GGGGACACGTGGTAAA, the “relative binding free energy” value is reported as -0.03 kcal/mol. CGCGGCACGTGTTTTG was tested, and the “relative binding free energy” value was 0.05 kcal/mol. TTGTTCACGTGTTGGT was tested, and the “relative binding free energy” value was 0.31 kcal/mol. AGACTCACGTGGTGTG was tested, and the “relative binding free energy” value was -0.16 kcal/mol. For GAATTCACGTGTTGCG, the “relative binding free energy” value was 0.3 kcal/mol. With CAGTGCACGTGTGGGG the “relative binding free energy” value was -0.05 kcal/mol. With TTGATCACGTGATCTA the “relative binding free energy” value was 0.25 kcal/mol. With GGTTGCACGTGCGGTT the “relative binding free energy” value was 0.14 kcal/mol. With TGTGTCACGTGGTGGG the “relative binding free energy” value was 0.1 kcal/mol. In the case of TGGTCCACGTGGAGGT, the “relative binding free energy” value is reported as 0.1 kcal/mol. For AAAAGCACGTGTGTGG, the “relative binding free energy” value was -0.11 kcal/mol. With GTTTGCACGTGTCGGA the “relative binding free energy” value was -0.02 kcal/mol. In the case of AGTTACACGTGCGTAT, the “relative binding free energy” value is reported as -0.04 kcal/mol. For TTGATCACGTGTTTAG, the “relative binding free energy” value was 0.07 kcal/mol. ACTCGCACGTGGGTGG was tested, and the “relative binding free energy” value was -0.29 kcal/mol. For ATAGGCACGTGCGGAG, the “relative binding free energy” value was -0.2 kcal/mol. In the case of GGAGTCACGTGTAGCA, the “relative binding free energy” value is reported as 0.25 kcal/mol. In the case of CCTTTCACGTGGTTGG, the “relative binding free energy” value is reported as 0.28 kcal/mol. For TAATTCACGTGGAGTT, the “relative binding free energy” value was 0.27 kcal/mol. In the case of AGAATCACGTGAGAGG, the “relative binding free energy” value is reported as 0.41 kcal/mol. In the case of TAAGTCACGTGAGGGG, the “relative binding free energy” value is reported as 0.28 kcal/mol. In the case of CAGCGCACGTGTGGTG, the “relative binding free energy” value is reported as 0.01 kcal/mol. For TGGATCACGTGCGCGA, the “relative binding free energy” value was 0.21 kcal/mol. For TCAAGCACGTGGGTGA, the “relative binding free energy” value was -0.21 kcal/mol. For TATCGCACGTGGGGGA, the “relative binding free energy” value was -0.16 kcal/mol. CTTTTCACGTGGCTAT was tested, and the “relative binding free energy” value was 0.11 kcal/mol. In the case of CTATGCACGTGTGTTG, the “relative binding free energy” value is reported as -0.14 kcal/mol. For GCTAGCACGTGGGGAG, the “relative binding free energy” value was -0.34 kcal/mol.
